Assay results taken from article PMC9911399, “Two distinct binding modes provide the RNA-binding protein RbFox with extraordinary sequence specificity”.
Positions count from the first letter of the chain named. The list shows a part of the results.

T1: RBFOX1 RRM (Homo sapiens, UniProt Q9NWB1 109-208)
T1 sequence: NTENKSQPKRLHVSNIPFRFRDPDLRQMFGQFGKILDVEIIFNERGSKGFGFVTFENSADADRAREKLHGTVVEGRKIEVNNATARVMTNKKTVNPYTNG

B1: GCGGCAA (DNA:RNA)
RNA: GGGAGACCGGAAUUCAGAUUGUCCGCGGCAAUUAAAUCCCGUCGUAGCCACCA
DNA 1: CAATCTGAATTCCGGTCTCCC
DNA 2: TGGTGGCTACGACGGGATT
B2: UACUGCG (DNA:RNA)
RNA: GGGAGACCGGAAUUCAGAUUGUCCUACUGCGUUAAAUCCCGUCGUAGCCACCA
DNA 1: CAATCTGAATTCCGGTCTCCC
DNA 2: TGGTGGCTACGACGGGATT
B3: GGGCUAG (DNA:RNA)
RNA: B1 RNA with C26G, G28C, C29U, A31G
DNA 1: CAATCTGAATTCCGGTCTCCC
DNA 2: TGGTGGCTACGACGGGATT
B4: GCUGUCC (DNA:RNA)
RNA: B1 RNA with G27U, C29U, A30C, A31C
DNA 1: CAATCTGAATTCCGGTCTCCC
DNA 2: TGGTGGCTACGACGGGATT
B5: AACUAAU (DNA:RNA)
RNA: B2 RNA with U25A, G29A, C30A, G31U
DNA 1: CAATCTGAATTCCGGTCTCCC
DNA 2: TGGTGGCTACGACGGGATT
B6: GUAUAAU (DNA:RNA)
RNA: B1 RNA with C26U, G27A, G28U, C29A, A31U
DNA 1: CAATCTGAATTCCGGTCTCCC
DNA 2: TGGTGGCTACGACGGGATT
B7: CCAUAAA (DNA:RNA)
RNA: B1 RNA with G25C, G27A, G28U, C29A
DNA 1: CAATCTGAATTCCGGTCTCCC
DNA 2: TGGTGGCTACGACGGGATT
B8: GAGAUUU (DNA:RNA)
RNA: B1 RNA with C26A, G28A, C29U, A30U, A31U
DNA 1: CAATCTGAATTCCGGTCTCCC
DNA 2: TGGTGGCTACGACGGGATT
B9: UGUACGA (DNA:RNA)
RNA: B1 RNA with G25U, C26G, G27U, G28A, A30G
DNA 1: CAATCTGAATTCCGGTCTCCC
DNA 2: TGGTGGCTACGACGGGATT
B10: ACAUGGA (DNA:RNA)
RNA: B1 RNA with G25A, G27A, G28U, C29G, A30G
DNA 1: CAATCTGAATTCCGGTCTCCC
DNA 2: TGGTGGCTACGACGGGATT
B11: UUAGCGA (DNA:RNA)
RNA: B1 RNA with G25U, C26U, G27A, A30G
DNA 1: CAATCTGAATTCCGGTCTCCC
DNA 2: TGGTGGCTACGACGGGATT
B12: GUGCCAG (DNA:RNA)
RNA: B1 RNA with C26U, G28C, A31G
DNA 1: CAATCTGAATTCCGGTCTCCC
DNA 2: TGGTGGCTACGACGGGATT
B13: GAACCGU (DNA:RNA)
RNA: B1 RNA with C26A, G27A, G28C, A30G, A31U
DNA 1: CAATCTGAATTCCGGTCTCCC
DNA 2: TGGTGGCTACGACGGGATT
B14: UGUGUAG (DNA:RNA)
RNA: B1 RNA with G25U, C26G, G27U, C29U, A31G
DNA 1: CAATCTGAATTCCGGTCTCCC
DNA 2: TGGTGGCTACGACGGGATT
B15: AUCGUAA (DNA:RNA)
RNA: B1 RNA with G25A, C26U, G27C, C29U
DNA 1: CAATCTGAATTCCGGTCTCCC
DNA 2: TGGTGGCTACGACGGGATT
B16: CAGCAAU (DNA:RNA)
RNA: B1 RNA with G25C, C26A, G28C, C29A, A31U
DNA 1: CAATCTGAATTCCGGTCTCCC
DNA 2: TGGTGGCTACGACGGGATT
B17: UUCGAGA (DNA:RNA)
RNA: B1 RNA with G25U, C26U, G27C, C29A, A30G
DNA 1: CAATCTGAATTCCGGTCTCCC
DNA 2: TGGTGGCTACGACGGGATT
B18: CUCGCCU (DNA:RNA)
RNA: B1 RNA with G25C, C26U, G27C, A30C, A31U
DNA 1: CAATCTGAATTCCGGTCTCCC
DNA 2: TGGTGGCTACGACGGGATT
B19: UCCACGA (DNA:RNA)
RNA: B1 RNA with G25U, G27C, G28A, A30G
DNA 1: CAATCTGAATTCCGGTCTCCC
DNA 2: TGGTGGCTACGACGGGATT
B20: ACCUCGU (DNA:RNA)
RNA: B1 RNA with G25A, G27C, G28U, A30G, A31U
DNA 1: CAATCTGAATTCCGGTCTCCC
DNA 2: TGGTGGCTACGACGGGATT
B21: GUUGUCU (DNA:RNA)
RNA: B1 RNA with C26U, G27U, C29U, A30C, A31U
DNA 1: CAATCTGAATTCCGGTCTCCC
DNA 2: TGGTGGCTACGACGGGATT
B22: GAGUAUC (DNA:RNA)
RNA: B1 RNA with C26A, G28U, C29A, A30U, A31C
DNA 1: CAATCTGAATTCCGGTCTCCC
DNA 2: TGGTGGCTACGACGGGATT
B23: ACGUCCG (DNA:RNA)
RNA: B1 RNA with G25A, G28U, A30C, A31G
DNA 1: CAATCTGAATTCCGGTCTCCC
DNA 2: TGGTGGCTACGACGGGATT
B24: AUUCCAG (DNA:RNA)
RNA: B1 RNA with G25A, C26U, G27U, G28C, A31G
DNA 1: CAATCTGAATTCCGGTCTCCC
DNA 2: TGGTGGCTACGACGGGATT
B25: UUCCGAA (DNA:RNA)
RNA: B2 RNA with A26U, U28C, C30A, G31A
DNA 1: CAATCTGAATTCCGGTCTCCC
DNA 2: TGGTGGCTACGACGGGATT
B26: UUCGUUA (DNA:RNA)
RNA: B1 RNA with G25U, C26U, G27C, C29U, A30U
DNA 1: CAATCTGAATTCCGGTCTCCC
DNA 2: TGGTGGCTACGACGGGATT
B27: UUUCCCC (DNA:RNA)
RNA: B2 RNA with A26U, C27U, U28C, G29C, G31C
DNA 1: CAATCTGAATTCCGGTCTCCC
DNA 2: TGGTGGCTACGACGGGATT
B28: CCGAAGA (DNA:RNA)
RNA: B1 RNA with G25C, G28A, C29A, A30G
DNA 1: CAATCTGAATTCCGGTCTCCC
DNA 2: TGGTGGCTACGACGGGATT
B29: UUGCACA (DNA:RNA)
RNA: B1 RNA with G25U, C26U, G28C, C29A, A30C
DNA 1: CAATCTGAATTCCGGTCTCCC
DNA 2: TGGTGGCTACGACGGGATT
B30: ACCUAUC (DNA:RNA)
RNA: B2 RNA with U25A, A26C, G29A, C30U, G31C
DNA 1: CAATCTGAATTCCGGTCTCCC
DNA 2: TGGTGGCTACGACGGGATT
B31: UCCUUGG (DNA:RNA)
RNA: B2 RNA with A26C, G29U, C30G
DNA 1: CAATCTGAATTCCGGTCTCCC
DNA 2: TGGTGGCTACGACGGGATT

What follows are binders tested against T1, RBFOX1 RRM (assay: EMSA; HiTS-Eq, 1 nM pool, 10 min; buffer printed only for the single-RNA assays: 10 mM Tris pH 7.5, 150 mM NaCl, 3.4 mM EDTA, 0.001% NP-40, 30 C). Details: tags: His6 N-terminal (pET28a); label: 5' 32P.
Outline: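 Purified RbFox RRM, wild type or mutant, was incubated for 10 min in 50 µL with 1 nM of a 5′-radiolabelled RNA pool carrying 7 randomized nucleotides, whose flanks were annealed to DNA oligonucleotides, over a series of increasing protein concentrations. Unbound RNA was resolved on 8% native PAGE, cut out, reverse-transcribed, barcoded by PCR and sequenced on an Illumina HiSeq 2500. Relative association constants were derived from changes in read counts for each RNA species versus the control reaction and normalised to the cognate motif.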
For B1, the binding signal was 0.0181 KA relative to UGCAUGU.
For B2, the binding signal was 0.0232 KA relative to UGCAUGU.
With B3 the binding signal was 0.0339 KA relative to UGCAUGU.
B4 was tested, and the binding signal was 0.0163 KA relative to UGCAUGU.
B5 was tested, and the binding signal was 0.000777 KA relative to UGCAUGU.
For B6, the binding signal was 0.00264 KA relative to UGCAUGU.
In the case of B7, the binding signal is reported as 0.000634 KA relative to UGCAUGU.
With B8 the binding signal was 0.0136 KA relative to UGCAUGU.
B9 was tested, and the binding signal was 0.0149 KA relative to UGCAUGU.
In the case of B10, the binding signal is reported as 0.00217 KA relative to UGCAUGU.
For B11, the binding signal was 0.0093 KA relative to UGCAUGU.
For B12, the binding signal was 0.0231 KA relative to UGCAUGU.
With B13 the binding signal was 0.00528 KA relative to UGCAUGU.
In the case of B14, the binding signal is reported as 0.018 KA relative to UGCAUGU.
B15 was tested, and the binding signal was 0.00185 KA relative to UGCAUGU.
With B16 the binding signal was 0.00394 KA relative to UGCAUGU.
B17 was tested, and the binding signal was 0.0113 KA relative to UGCAUGU.
In the case of B18, the binding signal is reported as 0.00873 KA relative to UGCAUGU.
For B19, the binding signal was 0.00471 KA relative to UGCAUGU.
B20 was tested, and the binding signal was 0.00254 KA relative to UGCAUGU.
With B21 the binding signal was 0.018 KA relative to UGCAUGU.
For B22, the binding signal was 0.00982 KA relative to UGCAUGU.
In the case of B23, the binding signal is reported as 0.0111 KA relative to UGCAUGU.
For B24, the binding signal was 0.00095 KA relative to UGCAUGU.
B25 was tested, and the binding signal was 0.0104 KA relative to UGCAUGU.
In the case of B26, the binding signal is reported as 0.00765 KA relative to UGCAUGU.
With B27 the binding signal was 0.00464 KA relative to UGCAUGU.
For B28, the binding signal was 0.00865 KA relative to UGCAUGU.
With B29 the binding signal was 0.0164 KA relative to UGCAUGU.
In the case of B30, the binding signal is reported as 0.0021 KA relative to UGCAUGU.
With B31 the binding signal was 0.0132 KA relative to UGCAUGU.
